Laboratory results reported in the antibiotic and cytotoxicity screens of Wong et al. (2023).
The other results are listed elsewhere or left out.

Legend:
HSkMC = human skeletal muscle cells; assay: cytotoxicity call (relative viability < 0.9); settings: 10 µM
HepG2 = assay: cytotoxicity call (relative viability < 0.9); settings: 10 µM
S. aureus RN4220 = assay: growth inhibition call (relative growth <= 0.2); settings: 50 µM

Compound | cytotoxicity call (HSkMC) | cytotoxicity call (HepG2) | growth inhibition call (S. aureus RN4220)
CC(C)NC(=O)[C@@]1(c2ccc([N+](=O)[O-])cc2)CC(=O)N(CC23CC4CC(CC(C4)C2)C3)[C@@H]1c1ccc(CO)cc1 | inactive | inactive | inactive
C[C@@H]1CN([C@H](C)CO)C(=O)c2cc(NC(=O)NC3CCCCC3)ccc2O[C@@H](C)CCCCO[C@H]1CN(C)S(=O)(=O)c1ccc(Cl)cc1 | inactive | active | inactive
COCC#Cc1ccc2c(c1)O[C@H](CN(C)S(=O)(=O)c1ccc(F)cc1)[C@H](C)CN([C@@H](C)CO)S2(=O)=O | inactive | inactive | inactive
CCNC(=O)N1CCC(N)CC1 | inactive | inactive | inactive
O=C(C[C@H]1CC[C@@H]2[C@H](COC[C@@H](O)CN2S(=O)(=O)c2ccc(Cl)cc2)O1)NCc1ccncn1 | inactive | inactive | inactive
CC(C)NC(=O)N(C)C[C@@H]1Oc2c(NC(=O)C3CCOCC3)cccc2C(=O)N([C@@H](C)CO)C[C@@H]1C | inactive | inactive | inactive
CC(C)NC(=O)N(C)C[C@@H]1Oc2ccc(NS(=O)(=O)c3cccs3)cc2CC(=O)N([C@@H](C)CO)C[C@@H]1C | inactive | inactive | inactive
COc1cccc(NC(=O)N(C)C[C@H]2Oc3ncc(C#Cc4ccncc4)cc3C(=O)N([C@H](C)CO)C[C@H]2C)c1 | inactive | active | inactive
C[C@H]1CN([C@@H](C)CO)C(=O)Cc2cc(NS(=O)(=O)c3ccc(Cl)cc3)ccc2O[C@H]1CN(C)Cc1ccc(Cl)c(Cl)c1 | active | active | inactive
C[C@H]1CCCCO[C@@H](CN(C)Cc2ccc(C(F)(F)F)cc2)[C@@H](C)CN([C@@H](C)CO)C(=O)c2cc(NC(=O)Nc3ccc(C(F)(F)F)cc3)ccc2O1 | active | active | inactive
Cn1cccc1CNCCCN1CCOCC1 | inactive | inactive | inactive
C[C@H](CO)N1C[C@H](C)[C@H](CN(C)Cc2ccc(C(=O)O)cc2)Oc2ccc(NC(=O)Nc3cccc4ccccc34)cc2C1=O | inactive | inactive | inactive
C[C@@H]1C[C@H](C)CN(S(=O)(=O)N2CCC[C@H](C(=O)NCCN3CCOCC3)C2)C1 | inactive | inactive | inactive
O=C(N[C@@H]1CC=CC[C@H](CC(=O)N(CCO)Cc2ccccc2)C(=O)N[C@@H](Cc2ccccc2)COC1=O)OCC1c2ccccc2-c2ccccc21 | inactive | inactive | inactive
CC(C)NC(=O)N(C)C[C@H]1Oc2c(NC(=O)NC3CCCCC3)cccc2C(=O)N([C@@H](C)CO)C[C@@H]1C | inactive | inactive | inactive
CC1(C)SCCN(S(=O)(=O)c2ccc(OCC#CCO)cc2)[C@H]1C(=O)NO | inactive | inactive | inactive
C[C@H]1CCCCO[C@@H](CN(C)C(=O)C2CCCCC2)[C@@H](C)CN([C@@H](C)CO)C(=O)c2cc(NC(=O)CCC(F)(F)F)ccc2O1 | inactive | inactive | inactive
C[C@@H]1CCCCO[C@H](CN(C)Cc2ccncc2)[C@H](C)CN([C@H](C)CO)C(=O)c2cc(NS(=O)(=O)c3ccc(Cl)cc3)ccc2O1 | inactive | inactive | inactive
C[C@H](CO)N1C[C@H](C)[C@@H](CN(C)C(=O)Nc2ccc(C(F)(F)F)cc2)Oc2ccc(NS(=O)(=O)c3ccc(F)cc3)cc2C1=O | inactive | inactive | inactive

Compound | cytotoxicity call (HSkMC) | cytotoxicity call (HepG2) | growth inhibition call (S. aureus RN4220)
NCC[C@H]1CC[C@@H](NC(=O)C2CCCC2)[C@H](CO)O1 | inactive | inactive | inactive
C[C@H]1CN([C@@H](C)CO)C(=O)c2cc(NC(=O)Cn3cnnn3)ccc2O[C@H]1CN(C)S(C)(=O)=O | inactive | inactive | inactive
COC(=O)c1c(C)cc(OC(=O)c2c(C)cc(O)c(CO)c2O)c(C)c1O | inactive | inactive | inactive
COc1ccc(CN(C)C[C@@H]2Oc3ccc(NC(=O)CCCN(C)C)cc3C(=O)N([C@H](C)CO)C[C@H]2C)cc1 | inactive | inactive | inactive
CC(=O)N1[C@H](Cn2cncn2)C[C@H]2CN(S(C)(=O)=O)CC[C@H]21 | inactive | inactive | inactive
Cc1noc(C)c1S(=O)(=O)Nc1ccc2c(c1)C(=O)N([C@@H](C)CO)C[C@H](C)[C@H](CN(C)CC1CCCCC1)OCCCC[C@@H](C)O2 | inactive | inactive | inactive
C[C@@H]1CCCCO[C@@H](CN(C)Cc2ccccc2)[C@@H](C)CN([C@H](C)CO)C(=O)c2cc(NC(=O)c3ccncc3)ccc2O1 | inactive | inactive | inactive
CN(C)Cc1cn(CC[C@H]2CC[C@H](NS(=O)(=O)c3ccccc3)[C@H](CO)O2)nn1 | inactive | inactive | inactive
C[C@@H]1CN([C@@H](C)CO)C(=O)c2cc(NS(=O)(=O)c3ccccc3)ccc2O[C@@H]1CN(C)C(=O)Nc1cccc2ccccc12 | inactive | inactive | inactive
C[C@@H]1CCCCO[C@@H](CN(C)Cc2ccc(C(=O)O)cc2)[C@H](C)CN([C@H](C)CO)C(=O)c2cc(NS(=O)(=O)c3ccc(F)cc3)ccc2O1 | inactive | inactive | inactive
CC(=O)OCC(COC(C)=O)OC(C)=O | inactive | inactive | inactive
O=C(O)c1nc(-c2cnccn2)no1 | inactive | inactive | inactive
CC(C)NC(=O)Nc1ccc2c(c1)CC(=O)N([C@@H](C)CO)C[C@H](C)[C@@H](CN(C)Cc1ccc(Oc3ccccc3)cc1)O2 | inactive | inactive | inactive
C[C@H](N)C(=O)O | inactive | inactive | inactive
COCCn1c(N)c(N(Cc2ccccc2)C(=O)C2=COCCO2)c(=O)[nH]c1=O | inactive | inactive | inactive
O=C(CCCCCC(=O)N/N=C/[C@@H](O)[C@@H](O)[C@H](O)[C@H](O)CO)NO | inactive | inactive | inactive
OCC1OC(OC2C(CO)OC(O)(CO)C2O)C(O)C(O)C1O (stereo unspecified) | inactive | inactive | inactive
Cc1noc(C)c1NC(=O)N(C)C[C@@H]1Oc2ccc(NC(=O)C3CC3)cc2C(=O)N([C@@H](C)CO)C[C@@H]1C | inactive | inactive | inactive
C[C@H]1CN([C@@H](C)CO)C(=O)c2cc(NC(=O)Cn3cnnn3)ccc2O[C@H]1CN(C)S(=O)(=O)c1cn(C)cn1 | inactive | inactive | inactive

Compound | cytotoxicity call (HSkMC) | cytotoxicity call (HepG2) | growth inhibition call (S. aureus RN4220)
C[C@@H]1CN([C@@H](C)CO)C(=O)Cc2cc(NS(=O)(=O)c3cn(C)cn3)ccc2O[C@@H]1CN(C)S(=O)(=O)c1cn(C)cn1 | inactive | inactive | inactive
C[C@H](CO)N1C[C@H](C)[C@H](CN(C)Cc2ccncc2)OCCCC[C@H](C)Oc2ccc(NC(=O)Nc3ccc(C(F)(F)F)cc3)cc2C1=O | inactive | active | inactive
COc1ccc(S(=O)(=O)N(C)C[C@H]2OCCCC[C@H](C)Oc3ccc(NC(=O)Nc4ccccc4)cc3C(=O)N([C@@H](C)CO)C[C@@H]2C)cc1 | inactive | inactive | inactive
C[C@H](CO)N1C[C@H](C)[C@H](CN(C)C(=O)Nc2cccc3ccccc23)Oc2ncc(C#Cc3ccccc3)cc2C1=O | inactive | inactive | inactive
COc1ccc(NC(=O)N(C)C[C@H]2Oc3ccc(NC(=O)Nc4cccc5ccccc45)cc3C(=O)N([C@@H](C)CO)C[C@H]2C)cc1 | inactive | inactive | inactive
COc1ccc(S(=O)(=O)N(C)C[C@H]2Oc3ccc(NC(=O)c4ccncc4)cc3CC(=O)N([C@H](C)CO)C[C@@H]2C)cc1 | inactive | inactive | inactive
Cl.Cl.NCCc1c[nH]cn1 | inactive | inactive | inactive
CO[C@H](CN(C)S(=O)(=O)c1cccc(Cl)c1)[C@@H](C)CN([C@H](C)CO)S(=O)(=O)c1ccc(Cl)cc1 | inactive | inactive | inactive
C[C@@H]1CCCCO[C@@H](CN(C)C(=O)Nc2cccc3ccccc23)[C@H](C)CN([C@H](C)CO)C(=O)c2cc(NC(=O)Nc3ccc(C(F)(F)F)cc3)ccc2O1 | inactive | inactive | inactive
C[C@H](CO)N1C[C@H](C)[C@@H](CN(C)C(=O)Nc2ccc(F)cc2)Oc2ccc(NC(=O)Nc3ccc(C(F)(F)F)cc3)cc2C1=O | inactive | inactive | inactive
C[C@H](CO)N1C[C@H](C)[C@H](CN(C)S(C)(=O)=O)Oc2ccc(NS(=O)(=O)c3cccs3)cc2C1=O | inactive | inactive | inactive
C[C@H]1CN([C@@H](C)CO)C(=O)c2cccc(NC(=O)c3cnccn3)c2O[C@H]1CN(C)Cc1ccncc1 | inactive | inactive | inactive
CO[C@@H]1CN(C)C(=O)c2ccc(NC(=O)Nc3cccc(F)c3)cc2OC[C@@H](C)N(C(=O)Nc2c(C)noc2C)C[C@H]1C | inactive | inactive | inactive
COc1ccccc1-c1ccc2c(c1)O[C@@H](CN(C)C(=O)c1ccncc1)[C@H](C)CN([C@@H](C)CO)S2(=O)=O | inactive | inactive | inactive
C[C@@H]1CN([C@H](C)CO)C(=O)c2cccc(NC(=O)NC3CCCCC3)c2O[C@H]1CN(C)Cc1ccc(C(F)(F)F)cc1 | inactive | inactive | inactive
Nc1ncn([C@@H]2C[C@H](O)[C@@H](CO)O2)c(=O)n1 | inactive | inactive | inactive
C=CC(=O)NS(=O)(=O)c1ccccc1 | inactive | inactive | inactive
COc1ccc(NC(=O)N(C)C[C@H]2Oc3c(NC(=O)CCCCCC(=O)Nc4ccccc4N)cccc3C(=O)N([C@H](C)CO)C[C@@H]2C)cc1 | inactive | inactive | inactive
C[C@H](CO)N1C[C@H](C)[C@@H](CN(C)C(=O)c2ccc(F)cc2)OCc2ccccc2-c2c(n(C)c3ccccc23)C1=O | inactive | inactive | inactive
